{"source": "PubChem BioAssay AID1345082", "about": "(National Center for Advancing Translational Sciences (NCATS), 2018)", "note": "Among all 94,000 compounds or so, about 4,000 (4.3%) were called active. The shares of active, inactive and inconclusive entries below differ from those in the screen. Calls follow the shape of the dose curve; as a rule, active = well fitted inhibition curve with a large enough effect; inconclusive = small, poorly fitted or top-dose-only effect; inactive = no such curve, though single readings can be large or run the other way. A potency beside an inconclusive call is a rough fit, not a confirmed value. Potency is read from the fitted curve at half-maximal effect; tags tell the direction and shape of the fitted curve.", "data": [{"assay": "Cytotoxic Profiling in NIH 3T3 Cell Line of Diverse Libraries Using Quantitative High-Throughput Screening; also: nearly all actives have a fitted effect of over 55% in size", "settings": "NIH 3T3 viability, CellTiter-Glo ATP luminescence, 48-72 h; series mostly up to 96.7 µM", "summary_of_the_method": "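Cytotoxicity is measured as loss of cellular ATP: NIH 3T3 cells (400/well) are exposed to compound for 48 or 72 hr at 37 °C, then CellTiter-Glo luminescence is imaged after 10 min at room temperature.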", "values": [{"smiles": "COCCC(=O)N[C@H]1CC[C@]2(C)CC[C@@H]([C@H](C)C(=O)NCc3ccco3)[C@H](O)[C@H]2[C@@H]1C", "Potency": "inconclusive: 100 µM [inhibitor, partial curve, poor fit]"}, {"smiles": "CNS(=O)(=O)CCNc1nc(-c2ccccn2)nc2c1c(C)nn2C", "Potency": "inactive"}, {"smiles": "CCCNC(=O)N1CCC(c2ncc(C)n2Cc2ccc(F)cc2)C1", "note": "(stereo unspecified)", "Potency": "inactive"}, {"smiles": "Cc1noc(-c2ccc(OC3CN(C(=O)C(C)Oc4ccccc4)C3)cc2)n1", "note": "(stereo unspecified)", "Potency": "inconclusive: 31.6 µM [inhibitor, partial curve]"}, {"smiles": "COc1ccc(CN2C=C(C(=O)OCc3noc(C4CCCC4)n3)C(C)=NS2(=O)=O)cc1", "Potency": "inconclusive: 31.6 µM [inhibitor, partial curve, poor fit]"}, {"smiles": "COc1ccc(CNC(=O)Cn2c(-c3cccc(Cl)c3)nc(C)c(CCO)c2=O)cc1OC", "Potency": "inconclusive: 50.1 µM [inhibitor, partial curve, poor fit]"}, {"smiles": "CCNc1cc(N2CCC(CCC(=O)NCc3cccc(F)c3)CC2)ncn1", "Potency": "inconclusive: 79.4 µM [inhibitor, partial curve, poor fit]"}, {"smiles": "COc1cccc(-c2cn3cc(C(=O)Nc4ccc(C)cc4)nc3s2)c1", "Potency": "inconclusive: 28.2 µM [inhibitor, full curve]"}, {"smiles": "CC1(C(=O)NCc2ccco2)CN(Cc2ccccc2)Cc2ccc(N3CCOCC3)nc21", "note": "(stereo unspecified)", "Potency": "inconclusive: 39.8 µM [inhibitor, partial curve, poor fit]"}, {"smiles": "O=C(Cc1c[nH]c2ncc(-c3ccccc3)cc12)N1CC[S+](=O)([O-])CC1", "Potency": "inconclusive: 79.4 µM [inhibitor, partial curve]"}, {"smiles": "CC(=O)N1CCN(C(=O)C2CCN(C(=O)c3ccc(-c4cccs4)cc3)CC2)CC1", "Potency": "inconclusive: 50.1 µM [inhibitor, single point]"}, {"smiles": "O=C(Nc1ccc(C(F)(F)F)cc1)C1=NO[C@@H]2CN(CCc3ccccc3)C[C@H]12", "Potency": "inconclusive: 56.2 µM [inhibitor, partial curve, poor fit]"}, {"smiles": "Cc1cnn(Cc2cc(C(=O)N3CC[C@@H](n4c(=O)n(C)c5cccnc54)C3)no2)c1", "Potency": "inactive"}, {"smiles": "Cc1[nH]cnc1CN1CCc2nc(C(=O)Nc3cccc(C(F)(F)F)c3)oc2CC1", "Potency": "inconclusive: 56.2 µM [inhibitor, partial curve, poor fit]"}, {"smiles": "Cc1noc2c(-c3cccnc3)cc(-c3cccc(C(F)(F)F)c3)nc12", "Potency": "inconclusive: 50.1 µM [inhibitor, partial curve, poor fit]"}, {"smiles": "COC1CCN(c2ncc(C(C)(C)C(=O)O)c(N3CCOCC3)n2)CC1", "Potency": "inconclusive: 56.2 µM [inhibitor, partial curve, poor fit]"}, {"smiles": "CCOc1ccccc1CN1CCCOCCNC(=O)[C@@H]2CCCC[C@@H]21", "Potency": "inconclusive: 79.4 µM [inhibitor, partial curve, poor fit]"}, {"smiles": "O=C(NCCc1ccccn1)C1CCN(Cc2ccccc2-c2cccnc2)CC1", "Potency": "inactive"}, {"smiles": "COc1ccc(CC(=O)NC2CCCc3c2[nH]c2ccccc32)cc1OC", "note": "(stereo unspecified)", "Potency": "inconclusive: 17.8 µM [inhibitor, full curve, poor fit]"}, {"smiles": "C=CCNC(=O)CCc1c(C)nn(-c2ccc(F)cc2)c1Oc1ccc(F)cc1F", "Potency": "inconclusive: 39.8 µM [inhibitor, partial curve, poor fit]"}, {"smiles": "Cc1nn(-c2ccc(C(C)C)cc2)c(C)c1[C@@H]1C=C[C@@H](NC(=S)NC2CCCCC2)C1", "Potency": "inconclusive: 28.2 µM [inhibitor, partial curve, poor fit]"}, {"smiles": "Cc1nn2c(c1-c1ccccc1C(C)C)N(C(=O)CCc1cccnc1)CCC2", "Potency": "inconclusive: 15.8 µM [inhibitor, full curve, poor fit]"}, {"smiles": "O=C(NCCc1ccc(F)cc1)C1CCCN(c2nccc(Nc3ccccc3F)n2)C1", "note": "(stereo unspecified)", "Potency": "active: 28.2 µM"}, {"smiles": "COCCNc1nc2c([S+](=O)([O-])c3ccc(Cl)cc3)nnn2c2ccccc12", "Potency": "inactive"}, {"smiles": "O=C(Nc1ccccc1)N1C[C@@H](F)[C@@H](OCc2nc3ccc(F)cc3[nH]2)C1", "Potency": "inactive"}, {"smiles": "C=C(C)CN(C)C(=O)c1cc(CN2CCC(Cc3ccccc3)CC2)on1", "Potency": "inactive"}, {"smiles": "COC(=O)c1cccc(-c2nc(C3CC(=O)N(c4ccc(Cl)cc4)C3)no2)c1", "note": "(stereo unspecified)", "Potency": "inconclusive: 70.8 µM [inhibitor, single point]"}, {"smiles": "Cc1cccc(-n2nc(C)c(CCC(=O)N(C)C(C)C)c2Oc2ccccc2C)c1", "Potency": "active: 28.2 µM"}, {"smiles": "COCCn1c(=O)c2c(n1Cc1ccccc1)CN(Cc1ccc3[nH]ccc3c1)CC2", "Potency": "inconclusive: 44.7 µM [inhibitor, full curve]"}, {"smiles": "COc1ccc(C(=O)NC2CCN(c3cc(-c4cccs4)[nH]n3)CC2)cc1", "Potency": "inconclusive: 44.7 µM [inhibitor, partial curve, poor fit]"}, {"smiles": "O=C(Cc1ccc(F)cc1)NC1CCN(C(=O)c2ccc(-c3cccs3)cc2)CC1", "Potency": "inconclusive: 39.8 µM [inhibitor, partial curve, poor fit]"}, {"smiles": "Cc1ccc(NC(=O)N2C[C@@H](F)C[C@H]2C(=O)N2CCc3ccccc3C2)cc1", "Potency": "inconclusive: 50.1 µM [inhibitor, partial curve, poor fit]"}, {"smiles": "COc1ccc(N2CC(C(=O)N3CCC(C(=O)NCCc4ccc(Cl)cc4)C3)NC2=O)cc1", "note": "(stereo unspecified)", "Potency": "inconclusive: 20 µM [inhibitor, partial curve, poor fit]"}, {"smiles": "CN1CCN(c2ccc(-c3noc([C@@H]4CCCN4CCCc4ccccc4)n3)cn2)CC1", "Potency": "active: 39.8 µM"}, {"smiles": "CCCn1ncc(CN(C)CC2CCN(CCc3ccc(Cl)cc3)CC2)c1C", "Potency": "active: 35.5 µM"}, {"smiles": "COc1cccc(-c2ccc(CN3CCCC(NC(=O)C4CC4)C3)cc2)c1", "note": "(stereo unspecified)", "Potency": "inconclusive: 44.7 µM [inhibitor, partial curve, poor fit]"}, {"smiles": "O=c1n(CCN2CCN([S+](=O)([O-])c3cccs3)CC2)nc2n1CCCC2", "Potency": "inactive"}, {"smiles": "CCn1ncc(N2CCCC(CC(=O)Nc3cc(OC)cc(OC)c3)C2)cc1=O", "note": "(stereo unspecified)", "Potency": "active: 39.8 µM"}, {"smiles": "CCS(=O)(=O)N1CCOC[C@H](Oc2ccc(C(F)(F)F)cn2)C1", "Potency": "inconclusive: 100 µM [inhibitor, partial curve, poor fit]"}, {"smiles": "CC(C)Cn1c(=O)c(C(=O)N2CCN(C(=O)N(C)C)CC2)nc2cccnc21", "Potency": "inactive"}, {"smiles": "COc1cccc(-c2cccc(C(=O)N3CCN(C(=O)c4cccc(Cl)c4)CC3)c2)c1", "Potency": "inconclusive: 44.7 µM [inhibitor, partial curve, poor fit]"}, {"smiles": "Cn1ncc2c(C(=O)NCC(F)F)cc(-c3ccccc3F)nc21", "Potency": "inconclusive: 50.1 µM [inhibitor, partial curve, poor fit]"}, {"smiles": "Cc1nc2c(c(-c3ccc(O)cc3)n1)CN(C(=O)c1ccc(C(F)(F)F)cc1)CCC2", "Potency": "inactive"}, {"smiles": "Cn1c2c(c3ccccc31)CN(C(=O)Nc1ccccc1)CC2", "Potency": "inconclusive: 50.1 µM [inhibitor, partial curve, poor fit]"}, {"smiles": "COc1ccc(CCC(=O)N2CCC3(CC2)CC(CO)N(C(=O)c2ccccc2)C3)cc1", "note": "(stereo unspecified)", "Potency": "inactive"}, {"smiles": "COc1ccc(-c2ccc(C(=O)N(C)c3ccccc3)cc2)nn1", "Potency": "active: 12.6 µM"}, {"smiles": "CCN1c2cc(C(=O)Nc3ccc(C(N)=O)cc3)ccc2C(=O)N2CCCCC21", "note": "(stereo unspecified)", "Potency": "active: 31.6 µM"}, {"smiles": "COc1ccc(-c2cccc(C(=O)N3CCC(NC(=O)c4ccc(Cl)cc4)CC3)c2)nn1", "Potency": "inconclusive: 50.1 µM [inhibitor, partial curve, poor fit]"}, {"smiles": "COc1ccc(-c2cc(N3CCCC(NC(=O)c4ccc5cc[nH]c5c4)C3)n[nH]2)cc1", "note": "(stereo unspecified)", "Potency": "inconclusive: 39.8 µM [inhibitor, partial curve, poor fit]"}, {"smiles": "COc1cccc(-c2noc(COC(=O)C3=CN(C)S(=O)(=O)N=C3C)n2)c1", "Potency": "inconclusive: 44.7 µM [inhibitor, partial curve, poor fit]"}, {"smiles": "COC1CCCN(C(=O)c2cc(COc3c(F)cccc3F)on2)C1", "note": "(stereo unspecified)", "Potency": "inactive"}, {"smiles": "CN1CCCC2(Cc3ccccc3CN(C(=O)C3CCCC3)C2)C1", "note": "(stereo unspecified)", "Potency": "inactive"}, {"smiles": "N#Cc1ccc(CN2CCCCC23Cc2ccccc2CNC3=O)cc1", "note": "(stereo unspecified)", "Potency": "inconclusive: 50.1 µM [inhibitor, single point]"}, {"smiles": "O=C(C1CCCN1C(=O)c1ccccc1Cl)N1CCC(c2ccccc2)CC1", "note": "(stereo unspecified)", "Potency": "inconclusive: 39.8 µM [inhibitor, partial curve, poor fit]"}, {"smiles": "Cc1ccc(-c2cccc(CN3CCCC(NC(=O)NC(C)C)C3)c2)cc1Cl", "note": "(stereo unspecified)", "Potency": "inconclusive: 11.2 µM [inhibitor, partial curve, poor fit]"}, {"smiles": "COc1cccc(-c2cn3cc(C(=O)N(C)C)nc3s2)c1", "Potency": "inconclusive: 89.1 µM [inhibitor, partial curve]"}, {"smiles": "COc1ccc(-c2noc([C@@H]3CCCN3C(=O)c3ccc(Cl)cc3)n2)cc1OC", "Potency": "inconclusive: 44.7 µM [inhibitor, partial curve, poor fit]"}, {"smiles": "CN1CCCCCCN(C(=O)Cc2cccc(F)c2)[C@H]2CCC[C@H]2C1=O", "Potency": "inconclusive: 50.1 µM [inhibitor, partial curve, poor fit]"}, {"smiles": "Cc1ncc2n1C(=O)N(C1CCN(Cc3cccc(C(F)(F)F)c3)CC1)C2", "Potency": "inconclusive: 50.1 µM [inhibitor, partial curve, poor fit]"}, {"smiles": "O=C1NC(=NC2CCCCC2)C2(CCCN(Cc3ccc(F)cc3)C2)N1c1cccnc1", "note": "(stereo unspecified)", "Potency": "inconclusive: 50.1 µM [inhibitor, partial curve, poor fit]"}, {"smiles": "COc1ccc(-c2ccc(C(=O)N3CCN(C(=O)Nc4ccc(Cl)cc4)CC3)cc2)nn1", "Potency": "inconclusive: 39.8 µM [inhibitor, partial curve, poor fit]"}]}]}
